Test results from the supplement of paper PMC4967469.
The IC50 comes from the fitted curve, where viability falls to half of the control; where the fit passes the top or lowest dose, that dose stands as a limit. The AUC spans the tested range (256-fold, ending at the top dose) of the same fit: 1 means no effect, lower means more sensitive. For some assays here: Any top dose called inferred comes from the curve model; the source does not state it.

Key:
Assay in all cases: Viability of human cancer cell lines after 72 h of drug (GDSC screen)
[1] = compound: Cn1nnc2c(C(N)=O)ncn2c1=O [Temozolomide]; conditions: top dose 30 µM
Protocol: (§1)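 Human cancer cell lines in 384-well plates, medium with 10% serum, drug for 72 h over a 256-fold dose range (nine 2-fold or five 4-fold steps up to the top dose). Adherent lines were fixed and stained with the nucleic acid dye Syto60, suspension lines read with resazurin; signal relative to control wells, capped at 0 and 100%. One two-parameter sigmoid per drug and line, fitted in a mixed model over all curves with the slope shared within a line.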

[2] = compound: COc1cc2c(Oc3ccc(NC(=O)C4(C(=O)Nc5ccc(F)cc5)CC4)cc3F)ccnc2cc1OCCCN1CCOCC1 [XL-880]; conditions: top dose 5.12 µM; top dose inferred
Protocol: as §1

[3] = compound: O=C(NOCC1CC1)c1ccc(F)c(F)c1Nc1ccc(I)cc1Cl [CI-1040]; conditions: top dose 10 µM; top dose inferred
Protocol: as §1

[4] = compound: CN1CCc2c(c3ccccc3n2Cc2ccc(C(=O)NO)cc2)C1 [Tubastatin A]; conditions: top dose 20 µM
Protocol: as §1

[5] = compound: Oc1ccc2ccccc2c1SSc1c(O)ccc2ccccc12 [IPA-3]; conditions: top dose 32 µM; top dose inferred
Protocol: as §1

Row | Cell Line | AUC [1] | IC50 [1] | AUC [2] | IC50 [2] | AUC [3] | IC50 [3] | AUC [4] | IC50 [4] | AUC [5] | IC50 [5]
1 | 42-MG-BA (glioma, adherent) | 0.957 | > 30 µM | 0.588 | 0.569 µM | 0.856 | 8.91 µM | 0.968 | > 20 µM | 0.985 | > 32 µM
2 | HCC-44 (lung adenocarcinoma, adherent) | 0.985 | > 30 µM | 0.562 | 0.47 µM | 0.688 | 2.08 µM | 0.83 | 12.2 µM | 0.786 | 13.5 µM
3 | HN (head and neck, adherent) | 0.987 | > 30 µM | 0.879 | 4.7 µM | 0.699 | 2.18 µM | 0.988 | > 20 µM | 0.988 | > 32 µM
4 | PE/CA-PJ15 (head and neck, adherent) | 0.955 | > 30 µM | 0.682 | 1.08 µM | 0.666 | 1.88 µM | 0.985 | > 20 µM | 0.89 | > 32 µM
5 | KON (head and neck, adherent) | 0.963 | > 30 µM | 0.818 | 2.82 µM | 0.85 | 7.37 µM | 0.987 | > 20 µM | 0.788 | 13.7 µM
6 | JHH-6 (liver, adherent) | 0.985 | > 30 µM | 0.736 | 1.53 µM | 0.877 | > 10 µM | 0.979 | > 20 µM | 0.976 | > 32 µM
7 | HCC-827 (lung adenocarcinoma, adherent) |  |  |  |  | 0.857 | > 10 µM | 0.979 | > 20 µM | 0.897 | > 32 µM
8 | 201T (lung adenocarcinoma, adherent) |  |  | 0.713 | 1.52 µM | 0.944 | > 10 µM | 0.977 | > 20 µM | 0.922 | > 32 µM
9 | NCI-H146 (small cell lung carcinoma, suspension) | 0.992 | > 30 µM |  |  | 0.982 | > 10 µM |  |  |  | 
10 | MEL-HO (melanoma, adherent) | 0.971 | > 30 µM |  |  | 0.41 | 0.353 µM |  |  |  | 
11 | NCI-H1105 (small cell lung carcinoma, suspension) | 0.977 | > 30 µM |  |  | 0.966 | > 10 µM |  |  |  | 
12 | COR-L321 (lung, suspension) | 0.964 | > 30 µM | 0.717 | 1.32 µM | 0.959 | > 10 µM | 0.831 | 12.6 µM |  | 
13 | MHH-CALL-2 (B-cell leukaemia, suspension) | 0.997 | > 30 µM |  |  | 0.961 | > 10 µM |  |  |  | 
14 | IGROV-1 (ovary, adherent) | 0.973 | > 30 µM |  |  | 0.901 | > 10 µM |  |  |  | 
15 | LN-229 (glioma, adherent) |  |  | 0.812 | 2.74 µM | 0.809 | 5.18 µM | 0.984 | > 20 µM | 0.884 | > 32 µM
16 | SK-MEL-31 (melanoma, adherent) | 0.981 | > 30 µM |  |  | 0.915 | > 10 µM |  |  |  | 
17 | MDA-MB-361 (breast, adherent) | 0.974 | > 30 µM | 0.946 | > 5.12 µM | 0.883 | > 10 µM | 0.954 | > 20 µM |  | 

Row | Cell Line | AUC [1] | IC50 [1] | AUC [2] | IC50 [2] | AUC [3] | IC50 [3] | AUC [4] | IC50 [4] | AUC [5] | IC50 [5]
18 | U-266 (myeloma, semi-adherent) | 0.964 | > 30 µM |  |  | 0.764 | 4.91 µM |  |  |  | 
19 | OACM5-1 (oesophagus, semi-adherent) | 0.98 | > 30 µM | 0.441 | 0.217 µM | 0.946 | > 10 µM | 0.851 | 18.5 µM |  | 
20 | KMS-11 (myeloma, suspension) | 0.991 | > 30 µM | 0.518 | 0.356 µM | 0.94 | > 10 µM | 0.959 | > 20 µM |  | 
21 | VMRC-RCW (kidney, adherent) |  |  | 0.703 | 1.13 µM | 0.93 | > 10 µM | 0.983 | > 20 µM | 0.857 | 23.1 µM
22 | SUP-B8 (B-cell leukaemia, suspension) | 0.976 | > 30 µM |  |  | 0.987 | > 10 µM |  |  |  | 
23 | NCI-H2052 (mesothelioma, adherent) |  |  | 0.918 | > 5.12 µM | 0.916 | > 10 µM | 0.963 | > 20 µM | 0.972 | > 32 µM
24 | BALL-1 (B-cell leukaemia, suspension) | 0.985 | > 30 µM |  |  | 0.973 | > 10 µM |  |  |  | 
25 | BT-549 (breast, adherent) | 0.934 | > 30 µM |  |  | 0.968 | > 10 µM |  |  |  | 
26 | KP-1N (pancreas, adherent) | 0.977 | > 30 µM |  |  | 0.892 | > 10 µM |  |  | 0.753 | 11.2 µM
27 | Hs746T (stomach, adherent) | 0.978 | > 30 µM | 0.605 | 0.688 µM | 0.862 | > 10 µM | 0.83 | 19 µM |  | 
28 | JHOS-4 (ovary, adherent) | 0.967 | > 30 µM |  |  | 0.974 | > 10 µM |  |  |  | 
29 | Caov-4 (ovary, adherent) | 0.978 | > 30 µM | 0.678 | 1.27 µM | 0.829 | > 10 µM |  |  | 0.974 | > 32 µM
30 | PANC-04-03 (pancreas, adherent) |  |  | 0.763 | 3.06 µM | 0.674 | 2.58 µM | 0.977 | > 20 µM | 0.96 | > 32 µM
31 | MKN45 (stomach, adherent) | 0.979 | > 30 µM |  |  | 0.846 | > 10 µM | 0.98 | > 20 µM | 0.822 | 25.4 µM
32 | SNU-61 (large intestine, adherent) | 0.977 | > 30 µM | 0.684 | 1.25 µM | 0.9 | > 10 µM | 0.868 | > 20 µM |  | 
33 | KARPAS-1106P (B-cell lymphoma, suspension) | 0.98 | > 30 µM |  |  | 0.866 | 6.44 µM |  |  |  | 
